# According to the supplement of paper PMC10338343:
# ± gives the standard deviation. Whole data set: some 5,500 sequences, median “pre-steady-state target cleavage rate” near 0.1, cut for the highest 2% near 0.64. The entries are a selection whose mix differs from that of the whole data set.
# System: MIWI (PIWIL1) piRISC loaded with piRNA #2 (30 nt)
# Test: pre-steady-state target cleavage rate (min^-1); MIWI and MILI are mouse PIWI proteins and EfPiwi is from a freshwater sponge; tags in brackets are library labels; higher = faster piRNA-guided slicing of the target
# Settings: guide: piRNA #2 5'p-UUAGGUAACCCAGUAGAUCCAGAGGAAUUC; auxiliary factor: 500 nM mouse GTSF1
# Summary of the method: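 A transcribed, DNA-blocked target RNA library (0.1 nM) and 1 nM active affinity-purified piRISC bearing one synthetic guide were incubated in HEPES–potassium acetate buffer at 33 °C for 0–8 or 0–960 min, either with or without 500 nM GTSF1 partner protein. Uncleaved targets were sequenced, normalised to depth and to weakly complementary targets, and pooled over three trials, with k3 capped at 0.0001 min^-1. The pre-steady-state cleavage rate was derived with a burst-and-steady-state fit.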
row,Sequence,pre-steady-state target cleavage rate
1,CUUAACCUCUGGAUCUACUGGGUUUCCUUA,0.107 ± 0.02
2,CUUAAGCUCUGCAACUACUGGGUUACCUAA,0.116 ± 0.016
3,CUUAUCCUCUUGAUCUACUGGGUUACCUAA,0.535 ± 0.032
4,GAAUUCCUCUGGAUCUACUGGGUUACCUAA [g2:g30:cont:t1A],0.299 ± 0.053
5,CUUUUCCUCAGGAUCUUCUGGGUUACCUAA,0.402 ± 0.066
6,CUUAACCUCUGGAUCUUCUGGGUAACCUAA,0.0409 ± 0.0084
7,CUUAACCACUGGAUGUACUGGGUUACCUAA,0.328 ± 0.03
8,CUUUUCCUCUGGAACUACUGGCUUACCUAA,0.167 ± 0.023
9,GAAUUCCUCGUGGAUCUACUGGGUUACCUAA,0.208 ± 0.032
10,CUAUUCCUGUGGAUCUACUGGGUUAGCUAA,0.144 ± 0.037
11,CUAUUCCUCUGGAUCUACUGGGUUACUAA,0.299 ± 0.072
12,CUUAACCUCACCAUCUACUGGGUUACCUAA,0.0839 ± 0.016
13,CUUAAGGUCUGGAUCAACUCGGUUACCUAA,0.0177 ± 0.015
14,CUUAAGGAGUGGAUCUACUGGGUCUACCUAA,0.0444 ± 0.014
15,GAAUUCCUCUGGAUGUACUGGGUUUCCUAA,0.346 ± 0.067
16,CUAUUCCACUGCAUCUACUGGGUUACCUAA,0.419 ± 0.024
17,CUUAACCUCUGGAUCUACUGGGUUAGCUAA,0.201 ± 0.021
18,CUUAUCCUCUGGAUCUACAGGGUUACCUUA,0.224 ± 0.029
19,CUUUUCCUCUGGAUCUAUGGGUUACCUAA,0.0116 ± 0.0027
20,CUAUUCCUCUGGAUCAACUGGGUUAGCUAA,0.161 ± 0.037
21,CUUUUCCUCUGGAUGUACUGGGUUACGUAA,0.54 ± 0.041
22,CUUAAGGUCUGCGAUCUACUGGGUUACCUAA,0.272 ± 0.051
23,CUUAAGGUCUGGAACAACUGGGUUACCUAA,0.0581 ± 0.023
24,CUUAAGGAGAGGAUCUACUGCGUUACCUAA,0.0103 ± 0.0036

row,Sequence,pre-steady-state target cleavage rate
1,GAAUUCCUGUGGAACUACUGGGUUACCUAA,0.256 ± 0.052
2,CUUAAGGUCUGGAUUUACUGGGUUACCUAA,0.259 ± 0.032
3,GAAUUCCUGACGAUCUACUGGGUUACCUAA,0.234 ± 0.031
4,CUUAAGGACUGGAUCUACUGGGUAACCUAA,0.0365 ± 0.034
5,CUUAACGUCUGGAUCUACUGGGUAACCUAA,0.0915 ± 0.018
6,CUUUUCCACUCGAUCUACUGGGUUACCUAA,0.547 ± 0.033
7,CAAUUCCUCUGGAUCAUCUGGGUUACCUAA,0.332 ± 0.05
8,CUUUUCCACUGGAUCUACUGGGUUACCUAA,0.562 ± 0.05
9,CUUAAGCUCUGCAUCUACUCGGUUACCUAA,0.0373 ± 0.012
10,CUAUUCCUCUGGAUCUUCUGGGUUUCCUAA,0.19 ± 0.042
11,CUUAUCCACUGGAUCUACAGGGUUACCUAA,0.244 ± 0.021
12,CAACUUCCUCUGGAUCUACUGGGUUACCUAA,0.28 ± 0.046
13,CUUAUCACUCUGGAUCUACUGGGUUACCUAA,0.203 ± 0.027
14,CUUAAGGAGUGGAUCUAGUGGGUUACCUUA,0.00368 ± 0.0032
15,CAAUUGCUCUGGAUCUACUGGGUUACCUAA,0.229 ± 0.045
16,CUUAAGGUCUCGAUCAACUGGGUUACCUAA,0.083 ± 0.014
17,CUUAUCCUCUGGAUCUACUGGGUUACCUUAA,0.29 ± 0.042
18,CUUAAGGAGACCUAGAUGUGGCUUACCUAA,< 0.0001
19,CUUAAGGACUGGUUCUACAGGGUUACCUAA,0.0293 ± 0.013
20,CUAUUCCUCUGGAACUACUGGCUUACCUAA,0.137 ± 0.018
21,CUUUUGCUCUGGAUCUUCUGGGUUACCUAA,0.13 ± 0.016
22,CAAUUCCACUCGAUCUACUGGGUUACCUAA,0.798 ± 0.047
23,CUUAACCUCUGGAUCUACUGGGUUUCCAAA,0.0522 ± 0.015
24,CUAUUCUCUGGAUCUACUGGGUUACCUAA,0.308 ± 0.049

row,Sequence,pre-steady-state target cleavage rate
1,CUAUUCCUCUGGAUCUACACGGUUACCUAA,0.174 ± 0.02
2,CUAUUCCUCUGGAUCUCCUGGGUUACCUAA,0.233 ± 0.049
3,CUAUCUCCUCUGGAUCUACUGGGUUACCUAA,0.355 ± 0.058
4,CAAUUCCUCUGGAUGUACUGGGUUACCUAA,0.578 ± 0.054
5,GAAUUCCUCUGGAUGUACUCGGUUACCUAA,0.0939 ± 0.026
6,CUAUUCCUCUGGAUCUACUGGGUUACCCAA,0.337 ± 0.11
7,CUUUUCCUCUGGAUCUACUGGGUUCCCUAA,0.25 ± 0.043
8,CUUAACCUCUGGAUGUACUGGGUUACGUAA,0.373 ± 0.038
9,CUAUUCCUCUGGUUCUACUGGGUUACCAAA,0.339 ± 0.064
10,CUUAACCUCUGGCUCUACUGGGUUACCUAA,0.56 ± 0.042
11,CUUAUUCUCUGGAUCUACUGGGUUACCUAA,0.185 ± 0.03
12,CUAUUCCUCUGGAUCUUCUGGGUAACCUAA,0.0712 ± 0.015
13,CUUUUCCUCUGGAUCUACAGGGUAACCUAA,0.118 ± 0.019
14,CUUAAGGACUGGUAUCUACUGGGUUACCUAA,0.0272 ± 0.023
15,CUUAAGGUCUGGAUCUACUGGGAUUCCUAA,0.00713 ± 0.0031
16,CUUAAGCUCUGGAUCUUCUGGGUUAGCUAA,0.0528 ± 0.0097
17,GAAUUCCUCAGGAUCUACUGGGUAACCUAA,0.341 ± 0.037
18,CUUAACCUCUGGAUCUACUGGCUUACGUAA,0.0611 ± 0.0099
19,CUAUUCCUCUGGAUCAACUGCGUUACCUAA,0.492 ± 0.064
20,CUUAAGCUCUGGAUCACUGGGUUACCUAA,0.0108 ± 0.0037
21,CUUAAGGAGACGAUCUACUGGGUUACAUAA,0.0124 ± 0.0049
22,GAAUUCCUCGGAUCUACUGGGUUACCUAA,0.432 ± 0.08
23,CUUAAGCUCUGGAUCUACUGCGUUUCCUAA,0.0239 ± 0.011
24,CUAUUCCUCUGGAUCAACUGGGUAACCUAA,0.164 ± 0.028
